Among all 310,000 compounds or so, about 2,200 (0.71%) showed an effect of 50% or more. The effect is printed as a negative number. This is one part of the list.
These molecules were tested against human ether-à-go-go-related gene (hERG) potassium channel (human, UniProt Q12809) (assay: primary screen, population patch clamp on CHO cells stably expressing hERG).
Chain of human ether-à-go-go-related gene (hERG) potassium channel (Q12809 whole entry, looked up): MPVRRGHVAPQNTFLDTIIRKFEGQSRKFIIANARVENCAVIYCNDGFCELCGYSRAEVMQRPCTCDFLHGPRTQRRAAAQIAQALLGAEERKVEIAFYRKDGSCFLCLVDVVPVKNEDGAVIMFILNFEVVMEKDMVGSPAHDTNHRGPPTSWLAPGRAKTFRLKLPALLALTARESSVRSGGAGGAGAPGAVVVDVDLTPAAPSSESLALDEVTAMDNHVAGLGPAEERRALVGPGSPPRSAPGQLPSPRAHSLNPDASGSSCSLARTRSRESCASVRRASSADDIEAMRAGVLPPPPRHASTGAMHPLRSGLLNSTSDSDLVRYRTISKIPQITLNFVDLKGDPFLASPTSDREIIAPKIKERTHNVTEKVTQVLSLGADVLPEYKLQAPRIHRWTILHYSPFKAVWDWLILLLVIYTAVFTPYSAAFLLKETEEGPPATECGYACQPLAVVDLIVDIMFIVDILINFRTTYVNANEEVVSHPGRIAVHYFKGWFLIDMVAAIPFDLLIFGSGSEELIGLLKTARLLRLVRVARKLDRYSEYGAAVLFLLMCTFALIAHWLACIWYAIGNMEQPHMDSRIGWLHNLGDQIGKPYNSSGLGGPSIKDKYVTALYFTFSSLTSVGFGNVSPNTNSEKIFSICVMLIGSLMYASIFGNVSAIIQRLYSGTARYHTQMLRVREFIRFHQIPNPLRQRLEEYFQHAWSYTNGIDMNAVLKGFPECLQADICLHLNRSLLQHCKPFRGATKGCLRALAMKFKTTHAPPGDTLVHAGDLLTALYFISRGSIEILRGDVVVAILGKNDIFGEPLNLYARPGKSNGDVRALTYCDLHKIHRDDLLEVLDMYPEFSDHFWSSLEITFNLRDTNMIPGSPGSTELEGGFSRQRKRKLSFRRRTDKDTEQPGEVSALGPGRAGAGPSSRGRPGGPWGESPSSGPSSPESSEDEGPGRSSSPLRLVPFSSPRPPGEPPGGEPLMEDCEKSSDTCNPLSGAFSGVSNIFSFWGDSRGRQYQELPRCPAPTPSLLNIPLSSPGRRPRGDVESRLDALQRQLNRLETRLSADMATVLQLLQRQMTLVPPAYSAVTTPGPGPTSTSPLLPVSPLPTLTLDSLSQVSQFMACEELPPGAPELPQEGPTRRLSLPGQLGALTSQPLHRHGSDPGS

Structure (SMILES) | hERG current change (%, negative = inhibition) at 1uM [%]
COc1cccc(C2CC(c3ccc(C)cc3)=NN2C(=O)c2ccccc2F)c1OC (stereo not drawn) | 13.8
C=CCSc1ncnc2sc(C)c(C)c12 | 10.5
CS(=O)(=O)c1ccc(N)cc1 | 13.1
O=C(Nc1nccs1)c1ccc2c(c1)OCO2 | 11.2
Cn1nnnc1SCC(=O)N1CCN(C(c2ccccc2)c2ccccc2)CC1 | 7.08
O=C(Nc1nnc(-c2ccc3c(c2)CCCC3)o1)c1ccccc1Cl | 11
CCOP(=O)(OCC)c1cccc(OP(=O)(c2cccc([N+](=O)[O-])c2)c2cccc([N+](=O)[O-])c2)c1 | 12.6
Cc1ccc(NC(=S)NN2CCOCC2)c(C)c1 | 7.15
COc1cc(-c2noc(C)c2-c2ccc(N(C)C)nc2)cc(OC)c1OC | 5.55
COc1ccc(C=Nc2cccnc2N)cc1 | 15.2
COc1ccc([N+](=O)[O-])cc1NC(=O)COC(C)=O | 14.2
CSc1ccc(C(=O)C2CCCN(C(=O)CCc3c(C)nn(C)c3C)C2)cc1 (stereo not drawn) | 14.1
COc1ccc(CNC(=O)COc2ccc(F)cc2)cc1 | -0.435
NS(=O)(=O)c1ccc(CCNC(=O)c2cncc(Br)c2)cc1 | 5.28
CCOc1ccc(/C=C(/NC(=O)c2ccccc2Cl)C(=O)O)cc1 | 6.12
Cc1ccc(CN2CC(C(=O)N3CCN(S(=O)(=O)c4ccc(C)cc4C)CC3)CC2=O)cc1 (stereo not drawn) | 10.7
COc1ccc(-c2cc(C(=O)N(C)CC(=O)Nc3ccccc3Br)c3ccccc3n2)cc1OC | 6.65
C/C(=N\NC(=O)COc1ccc(C(C)(C)C)cc1)c1ccc(OC(F)F)cc1 | 10.9
O=C(Nc1nnc(-c2ccccc2)s1)c1cccc(S(=O)(=O)N2CCOCC2)c1 | 10.3
CC(C)Cc1cc(C(=O)N2CCC(N3CCC(C(=O)NC4CC4)CC3)CC2)n[nH]1 | 12.5
Cc1nn(C(=O)c2ccoc2C)c(N)c1-c1ccccc1 | 9.42
Cc1ccc(Nc2nc(C(=O)NCc3ccco3)cs2)cc1 | 3.51
O=C(NC1CCSc2ccccc21)c1cccc(Br)c1 (stereo not drawn) | 22.1

Structure (SMILES) | hERG current change (%, negative = inhibition) at 1uM [%]
O=C(NCc1csc(-c2cccs2)n1)Nc1cccc(Cl)c1 | 11.6
CCCNC(=O)c1ccc(SCC(=O)N(CC)CC)c([N+](=O)[O-])c1 | -5.96
COCCCNC(=S)NC1CC2CCC(C1)N2Cc1ccccc1 (stereo not drawn) | 3.4
CN1CCN(S(=O)(=O)c2cccc(C(=O)Oc3cccc(C#N)c3)c2)CC1 | 11.8
Brc1cccc(CNCc2cccs2)c1 | 4.26
Cc1cccnc1-n1c(-c2ccccc2)nc2ccccc2c1=O | -0.9
CCCCCCNC(=O)CC(NS(=O)(=O)c1ccc(OC)cc1)C(C)C (stereo not drawn) | 5.11
Cc1ccccc1NC(=S)NC1CC2CCC(C1)N2Cc1ccco1 (stereo not drawn) | 6.48
Cn1c(=O)n(C)c2cc(S(=O)(=O)NCCO)ccc21 | 4.65
CCCN1C(=O)/C(=C\C=C2/C=CN(CC)c3ccccc32)SC1=S | 15.7
CCOc1ccc(NC(=O)c2cccc3c2C(=O)N(CCOC)C3)cc1 | 13.2
CC1(c2nnc(-c3cccc(Cl)c3)o2)CC(c2ccccc2)=NO1 (stereo not drawn) | 3.04
CCc1cccc(NC(=O)[C@@H]2CCCN2C2=NS(=O)(=O)c3ccccc32)c1 | -8.45
O=C(OCc1ccccc1)C1CCCN1C(=O)c1ccccc1[N+](=O)[O-] (stereo not drawn) | 0.863
COc1ccc(C(=O)Nc2ccc(CN3CCCCC3)cc2)cc1 | -10.2
Cc1cccc(C)c1NC(=O)COn1nnc2ccc(C(F)(F)F)cc21 | 9.25
CCOc1ccc2nc(NC(=O)C3CCCO3)sc2c1 (stereo not drawn) | -2.03
O=C(NCCN=C1NS(=O)(=O)c2ccccc21)c1ccc2nccnc2c1 | 18.3
COc1ccccc1CN1CC(C(=O)NCc2ncccc2C)CCC1=O (stereo not drawn) | 2.01
CC1CC(C)CN(C(=O)c2cc(-c3ccccn3)nc3ccccc23)C1 (stereo not drawn) | 7.69
Cc1cc(C(=O)N2CCCC(C(=O)c3cccc(C(F)(F)F)c3)C2)n[nH]1 (stereo not drawn) | 8.04
Cc1cc(C)n(-c2nc3ccccc3c(=O)n2OCc2ccc(F)cc2)n1 | 14.2
CCOc1ccc(NC(=O)C2CC(=O)N(C(C)C)C2)cc1 (stereo not drawn) | 14.3

Structure (SMILES) | hERG current change (%, negative = inhibition) at 1uM [%]
CCC(CC)C(=O)OCC(=O)Nc1cccc([N+](=O)[O-])c1 | 6.43
Cc1ccc(-c2nnn(CC(=O)N(c3cccc(F)c3)C(C(=O)NC3CCCC3)c3ccco3)n2)o1 (stereo not drawn) | 14.1
C=Cn1c(N2CCOCC2)nc2c1c(=O)[nH]c(=O)n2C | 0.946
COc1cc(O)c(CC=C(C)C)c(O)c1C(=O)CCc1ccc(O)cc1 | 8.18
O=C(COc1ccccc1-c1ccccc1)N/N=C/c1cccc2ccccc12 | 3.51
C/C(CCCO)=N/Nc1ccc([N+](=O)[O-])cc1[N+](=O)[O-] | 7.43
COc1cccc2cc(C(N)=O)/c(=N/NC(=O)COc3ccc(Cl)cc3)oc12 | 14
COC(=O)CSc1nnc(-c2ccccc2OC)o1 | 13
O=C(Cc1ccccc1)Nc1cccc([N+](=O)[O-])c1 | 11.1
O=C(CN1CCN(S(=O)(=O)N2CCCCCC2)CC1)Nc1ccc(F)cc1 | -75.1
Cc1ccc(Cc2cnc(NC(=O)c3cccs3)s2)cc1 | 10.9
COc1ccc(Cn2c(CO)cnc2SCC(=O)Nc2cc(C)on2)cc1 | 15.2
CC1(C)Cc2c(sc3c2C2=NCCN2C=N3)CS1.Cl | -1.83
CCOC(=O)c1sc2nc(C)nc(NCc3ccc(Cl)cc3)c2c1C | -89.6
CC(=O)c1ccc(OCC(O)CN2CCN(S(=O)(=O)c3cccc(Br)c3)CC2)cc1 (stereo not drawn) | 18.1
COc1cc(CCC(=O)OCC(=O)N(CCC#N)c2ccccc2)cc(OC)c1OC | 9.93
CC1(C)Cc2nc(NCCN3CCOCC3)c(C#N)cc2CO1 | -1.38
CCSc1nnc(NC(=O)C2CCN(S(=O)(=O)c3ccccc3C(F)(F)F)CC2)s1 | 12.1
CCOC(=O)c1cc(C)n(-c2ccc(OC)c(OC)c2)c1C | 2.44
N=c1oc2ccccc2cc1C(=O)N/N=C/c1ccccc1 | 4.41
COc1ccc(NS(=O)(=O)c2ccc(NC(=S)NCC3CCCO3)cc2)cc1 (stereo not drawn) | 5.53
CS(=O)(=O)N1CCN(C(=O)Cc2ccc([N+](=O)[O-])cc2)CC1 | 5.53
COc1cc(OC)c(C(=O)Nc2ncn[nH]2)cc1OC | 7.08

Structure (SMILES) | hERG current change (%, negative = inhibition) at 1uM [%]
COc1ccc(NC(=S)Nc2ccc(Oc3ccccc3)cc2)cc1 | -7.22
COc1ccc(-n2c(Cc3cc(=O)[nH]c(=O)[nH]3)nnc2SCC(=O)Nc2cc(C(F)(F)F)ccc2Cl)cc1 | 5.68
S=C(NCCCN1CCOCC1)Nc1ccc(-c2nc3ccccc3[nH]2)cc1 | -6.21
CCc1cc(=O)oc2cc(C)cc(OC(C)C(=O)NC(Cc3c[nH]c4ccc(O)cc34)C(=O)O)c12 (stereo not drawn) | 3.52
COc1ccc(C(=O)NCC2OCCc3ccccc32)c(O)c1 (stereo not drawn) | 16.4
Cc1ccc2c(C)c(C(=O)N(C)C(C)c3ccon3)oc2c1C (stereo not drawn) | 9.32
Cc1ccc(CNC(=O)C2CC(c3ccccc3F)=NO2)cc1 (stereo not drawn) | 7.78
O=C(COc1cc(Cl)ccc1Cl)Nc1ccc2c(c1)CCC2 | 16.1
O=C(O)c1ccccc1NC(=O)C(c1ccccc1)c1ccccc1 | 9.28
O=C(COC(=O)c1ccc([N+](=O)[O-])o1)c1ccccc1 | 12.9
C#CCO[C@@H]1C[C@H](n2cnc3c(NC(=O)c4ccccc4)ncnc32)O[C@@H]1CO | 13.5
CCC(=Cc1ccc(CC)cn1)CC | -2.51
CS(=O)(=O)NN1C(=O)c2ccccc2NC1c1cccc2cccnc12 (stereo not drawn) | 2.6
Cc1ccc(Cl)cc1NC(=O)c1cc(NC(=O)CCCC(=O)O)ccc1N1CCCCC1 | 7.25
FC(F)(F)c1ccc(NC2=NCCCS2)cc1 | 14
CCCC(=O)Nc1ccc2c(c1)nc(CN1CCCCC1)n2C | 10.4
CN1CCN(S(=O)(=O)c2cccc(C(=O)Nc3ccc(Br)cc3Br)c2)CC1 | 4.36
O=C(c1ccc(Cl)cc1)n1c(NCc2ccccc2)n[nH]c1=S | 1.94
Cc1c(-c2cccc(NC(=O)c3ccco3)c2)nc2ncccn12 | 6.7
NNC(=O)CSc1nnc(-c2ccccc2)n1-c1ccccc1 | 10.3
CCC(CC)c1nnc(NC(=O)C2CC(=O)N(C3CCCC3)C2)s1 (stereo not drawn) | 8.17

Reference: paper PMC4336329 (PLoS ONE, 2015)
